# Experimental data taken from PubChem BioAssay AID504332 (National Center for Advancing Translational Sciences (NCATS), 2011).
# Values joined by “and” are separate entries in the source; they are usually repeats but may differ in a detail not shown here. Equal entries are not always repeated. The campaign covered roughly 350,000 compounds. About 31,000 (8.9%) were called active. The inconclusive results got no clear call from the source; some entries with a clear call stand among them for comparison. Calls come from the whole dose curve; as a rule, active = well fitted inhibition curve with a large enough effect; inconclusive = small, poorly fitted or top-dose-only effect; inactive = no such curve, though single readings can be large or run the other way. Potencies beside an inconclusive call are fits to weak or partial responses and may not hold up. A structure can be active in one record and inactive in another.
# Target: Histone-lysine N-methyltransferase EHMT2 (Homo sapiens) (UniProt Q96KQ7)
# Test: qHTS Assay for Inhibitors of Histone Lysine Methyltransferase G9a; note: nearly all actives have a fitted effect of over 75% in size
# Details: G9a H3K9 monomethylation, AlphaScreen, 2 h; activity, negative = inhibition: at 59 µM (top of the series) unless noted
# In short: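 G9a (20 nM) preincubated 15 min RT with compounds, then 500 nM biotinylated H3K9 peptide and 20 uM SAM added; 2 h RT reaction. Monomethyl-H3K9 product detected by AlphaScreen with anti-H3K9me1 antibody, streptavidin donor and anti-rabbit IgG acceptor beads.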
# % is set by controls: 0 for no effect and ±100 for the full control effect; potency is the fitted concentration of half-maximal effect; tags give direction and shape of the fitted curve.
# Sequence of UniProt Q96KQ7 (Q96KQ7 whole entry, looked up): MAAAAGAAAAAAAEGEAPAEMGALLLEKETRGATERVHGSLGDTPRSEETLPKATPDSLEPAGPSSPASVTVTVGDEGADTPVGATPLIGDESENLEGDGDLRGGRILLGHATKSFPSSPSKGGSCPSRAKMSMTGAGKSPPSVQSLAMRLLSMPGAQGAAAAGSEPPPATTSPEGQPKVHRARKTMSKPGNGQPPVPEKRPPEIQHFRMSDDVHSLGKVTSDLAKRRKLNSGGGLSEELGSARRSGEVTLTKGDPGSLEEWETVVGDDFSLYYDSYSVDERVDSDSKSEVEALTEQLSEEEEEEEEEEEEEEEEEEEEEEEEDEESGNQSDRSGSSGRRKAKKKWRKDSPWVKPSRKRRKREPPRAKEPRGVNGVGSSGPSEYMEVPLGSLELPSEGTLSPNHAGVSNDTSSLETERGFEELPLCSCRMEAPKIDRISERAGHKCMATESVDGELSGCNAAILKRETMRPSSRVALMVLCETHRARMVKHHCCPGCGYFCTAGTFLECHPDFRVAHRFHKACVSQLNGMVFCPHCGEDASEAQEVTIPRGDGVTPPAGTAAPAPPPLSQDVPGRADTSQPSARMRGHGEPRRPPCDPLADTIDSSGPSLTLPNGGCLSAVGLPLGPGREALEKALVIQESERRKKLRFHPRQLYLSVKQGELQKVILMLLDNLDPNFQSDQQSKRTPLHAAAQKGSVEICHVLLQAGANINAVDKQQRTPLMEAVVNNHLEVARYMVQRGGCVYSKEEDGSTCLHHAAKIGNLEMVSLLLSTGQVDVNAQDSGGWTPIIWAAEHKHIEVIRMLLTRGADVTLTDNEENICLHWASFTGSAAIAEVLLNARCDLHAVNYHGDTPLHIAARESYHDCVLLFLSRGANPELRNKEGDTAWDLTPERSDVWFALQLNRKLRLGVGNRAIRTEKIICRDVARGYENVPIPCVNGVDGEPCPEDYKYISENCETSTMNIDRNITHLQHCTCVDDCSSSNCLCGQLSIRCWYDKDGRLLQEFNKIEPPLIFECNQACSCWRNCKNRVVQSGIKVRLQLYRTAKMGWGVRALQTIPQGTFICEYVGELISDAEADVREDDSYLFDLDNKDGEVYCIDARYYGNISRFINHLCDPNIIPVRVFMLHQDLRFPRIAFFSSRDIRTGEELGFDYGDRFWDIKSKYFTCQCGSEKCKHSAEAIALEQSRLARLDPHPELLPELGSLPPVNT
SMILES,"activity, negative = inhibition",Potency
Cc1c(Cl)cccc1NC(=O)CSc1nc2ncccc2o1,inactive: 4.33%,–
COc1ccc2nc(N=Nc3c(O)ccc4ccccc34)sc2c1,–,active: 3.16 µM
Cc1cc(-c2ccccc2)nc(-c2ccccc2)c1C,–,"inconclusive: 39.8 µM [inhibitor, full curve]"
C=CCNc1nnc(SCC(=O)N2CCC(C(N)=O)CC2)s1,inactive: 4.8% [at 0.501 µM],–
Cc1nn(CC(O)COc2ccc3c(c2)CCC3)c(C)c1C (centres undefined),inactive: 16.3%,–
CC1Cn2c(C(=O)NCc3cccc(Br)c3)cc3cccc(c32)S1 (centres undefined),inactive: 28.7%,–
COc1ccc(N2CCN(C(=O)NC3CCCCC3)CC2)cc1,–,"inconclusive: 7.94 µM [inhibitor, full curve, poor fit]"
Clc1ccc(CN2CCN(/N=C/c3cccnc3)CC2)cc1,–,"inconclusive: 79.4 µM [inhibitor, partial curve]"
Cn1c(=O)c2c(ncn2CCC(=O)N/N=C/c2cccnc2)n(C)c1=O,inactive: -8.34% [at 102 µM],–
COc1cccc(N(C(=O)c2ccco2)C(C(=O)NC2CCCC2)c2ccc(N(C)C)cc2)c1 (centres undefined),–,"inconclusive: 25.1 µM [inhibitor, single point]"
CCc1ccc(Nc2n[n+](-c3ccccc3)c(-c3ccc(N(CC)CC)cc3)s2)cc1,–,active: 12.6 µM
O=C(O)c1ccc(-n2cccc2/C=C2/NC(=O)N(c3cccc(Cl)c3)C2=O)cc1,–,active: 8.91 µM
COc1ccc(C(CCc2ccc(C)o2)NC(=O)Nc2ccc(OC)cc2OC)cc1 (centres undefined),–,"inconclusive: 44.7 µM [inhibitor, partial curve, poor fit]"
C=C(C)CNC(=S)N1CCNC(=O)C1CC(=O)OC (centres undefined),–,"inconclusive: 1 µM [inhibitor, partial curve, poor fit]"
CN(C)c1ccc(NC(=S)NC23CC4CC(CC(C4)C2)C3)cc1,–,"inconclusive: 3.16 µM [inhibitor, full curve, poor fit]"
CC(=O)OCC1=C(C(=O)O)N2C(=O)[C@@H](NC(=O)Cc3cccs3)[C@H]2SC1,–,active: 22.4 µM and active: 7.52 µM
COC(=O)c1ccc(N2CCOCC2)c(F)c1,inactive: 23.5% [at 102 µM],–
CCOC(=O)c1c(C)[nH]c(C)c1S(=O)(=O)NCC1CCN(Cc2cccc(Cl)c2)CC1,–,"inconclusive: 70.8 µM [inhibitor, single point]"
CCOc1ccc(N/C(N)=N/c2nc(C)c(C)c(=O)[nH]2)cc1,–,active: 50.1 µM
CCC(=O)N(Cc1cc(=O)[nH]c2ccccc12)c1ccccc1C,–,active: 44.7 µM
CC1=C(C(=O)NC(C)CCc2ccccc2)C2(CCC(C)CC2)OC1=O (centres undefined),–,"inconclusive: 35.5 µM [inhibitor, single point]"
COc1ccc(OC)c(-n2c(=S)[nH]c3cc(C(=O)NCCCN4CCCC4=O)ccc3c2=O)c1,–,active: 28.2 µM
COc1ccccc1CNC(=O)C1CCCN(c2nnc(C)c3c(C)n(-c4ccccc4)nc23)C1 (centres undefined),–,"inconclusive: 5.01 µM [inhibitor, partial curve, poor fit]"
COCCCn1c(SCC(=O)Nc2ccc(NC(C)=O)cc2)nc2sc3c(c2c1=O)CCC3,–,active: 44.7 µM
Cc1nc2c(ccc3c([N+](=O)[O-])cccc32)c(C)c1C,–,"inconclusive: 89.1 µM [inhibitor, partial curve, poor fit]"

SMILES,"activity, negative = inhibition",Potency
CC(=O)Nc1ccc(NC(=O)C(C)OC(=O)C2(c3ccc(Cl)cc3)CCCC2)cc1 (centres undefined),–,active: 50.1 µM
C=Cc1ccc(Cn2c(=O)cc(C)c3c(C)nn(-c4ccccc4)c32)cc1,inactive: 38.9%,–
O=C(CCN1C(=O)c2ccccc2C1=O)N1CCCCCC1,inconclusive: -70.2% [inhibitor],–
COc1ccc(NC(=O)[C@H](C)NC(N)=O)cc1S(=O)(=O)Nc1cc(C)ccc1Br,inactive: 27.7% [at 0.0925 µM],–
COc1ccc(-c2csc(NC(=O)c3ccccc3NS(=O)(=O)c3ccc(C)cc3)n2)cc1,–,"inconclusive: 25.1 µM [inhibitor, single point]"
O=c1cc(C(F)(F)F)nc(SC/C=C/c2ccccc2)[nH]1,–,"inconclusive: 89.1 µM [inhibitor, single point]"
CC(C)CCOc1ccc(C2(C)NC(=O)NC2=O)cc1 (centres undefined),inactive: -1.4% [at 102 µM],–
COc1ccc(-c2noc(N3CCC(C(=O)N4CCN(c5ccccc5F)CC4)CC3)n2)cc1,–,"inconclusive: 31.6 µM [inhibitor, partial curve, poor fit]"
C(=C\c1nc(-c2cccnc2)no1)/c1ccccc1,inactive: -10.3% [at 102 µM],–
Cc1cc(=O)c2c(O)c(O)ccc2o1,–,active: 1.78 µM
COc1ccc2[nH]c3c(c2c1)CCN1C(=O)N([C@@H](C)C(=O)NCc2ccc(F)cc2)C(=O)[C@]31C,–,"inconclusive: 1.78 µM [inhibitor, full curve, poor fit]"
CCn1c(C)c(C)c2cc(C(=O)NCc3ccc(OC(C)C)cc3)ccc21,–,"inconclusive: 15.8 µM [inhibitor, partial curve]"
O=C(c1ccc2c(c1)OCO2)N(Cc1ccco1)C1(C(=O)NC2CCCCC2)CCCCC1,–,active: 79.4 µM
CCOC(=O)c1c(NC(=O)CSc2nnc(Cc3csc(N)n3)n2C)sc(C)c1C,–,"inconclusive: 1 µM [inhibitor, partial curve, poor fit]"
c1csc(-c2csc3nc(CN4CCOCC4)nc(NCc4ccc5c(c4)OCO5)c23)c1,–,"inconclusive: 31.6 µM [inhibitor, single point]"
COc1ccc(-c2cn3nc(N4CCCC(C(=O)Nc5ccccc5OC)C4)sc3n2)cc1 (centres undefined),–,"inconclusive: 11.2 µM [inhibitor, partial curve, poor fit]"
Cc1c(O)cc2n(c1=O)-c1ccc(Cl)cc1C2(C)C,inactive: 20.4%,–
Cc1ccc[n+](-c2nc([O-])sc2C=O)c1,–,"inconclusive: 89.1 µM [inhibitor, single point]"
CC1=C(C(=O)OCC(Cl)(Cl)Cl)N2C(=O)C(NC(=O)Cc3ccccc3)C2SC1 (centres undefined),–,active: 39.8 µM
COc1ccc(N2CCN(C(C)C(=O)N3CCc4ccccc43)CC2)cc1 (centres undefined),–,active: 39.8 µM
COc1cc(-c2nc(-c3ccccn3)no2)cc(OC)c1OC,inactive: 50.6% [at 102 µM],–
CCN(CC)C(=O)COc1ccc(/C(C)=N/NC(=O)c2ccccc2-n2cccc2)cc1,–,"inconclusive: 79.4 µM [inhibitor, single point]"
COc1cccc(CNC(=O)CCC2CCCN(C3CCOCC3)C2)c1 (centres undefined),–,"inconclusive: 89.1 µM [inhibitor, single point]"
Cc1cccc2nc(CSc3nncn3-c3ccccc3)cn12,–,active: 39.8 µM
COc1ccc(C2NC(=S)NC3=C2CCc2ccccc23)cc1OC (centres undefined),–,active: 0.631 µM

SMILES,"activity, negative = inhibition",Potency
Cc1ccccc1C(=O)NNC(=O)/C=C\C(=O)O,–,active: 4.47 µM
COc1ccccc1NC(=O)CSc1nnc(-c2ccccn2)o1,inactive: 7.94% [at 102 µM],–
Cn1ccc2ccc(C3=CC(=O)C[C@H](c4ccc(F)cc4)C3)cc21,inactive: -13.6% [at 0.501 µM],–
CC(=O)CSc1ncnc2sc3c(c12)CCC(C)C3 (centres undefined),–,active: 39.8 µM
Cc1cnc(CNc2ncncc2-c2cccc(C#N)c2)cn1,inactive: 0.126% [at 0.501 µM],–
COc1c2c(cc3ccc(=O)oc13)CCO2,–,"inconclusive: 89.1 µM [inhibitor, single point]"
COc1ccc(CCNC(=O)c2nc(SCc3ccccc3F)ncc2Cl)cc1OC,inactive: -22.7%,–
Cc1cccc(C(=O)NC(=S)NNC(=O)COc2c(C)cccc2C)c1,–,active: 7.94 µM
CNC(=O)CC(CC(=O)c1ccccc1)c1ccccc1 (centres undefined),inactive: 8.59% [at 2.33 µM],–
FC(F)(F)c1ccc(CSc2nccn2-c2ccccc2)cc1,–,active: 44.7 µM
Cc1cccc(C)c1NC(=O)Cn1c(=O)n(CCCS(=O)(=O)C2CCCCC2)c(=O)c2ccccc21,inactive: 3.14%,–
C[n+]1cc[nH]c1SCC(=O)c1ccccc1,–,active: 50.1 µM
CCOC(=O)c1c(NC(=O)C2=C(C)NC(=S)NC2c2ccccc2C(F)(F)F)sc(C)c1C (centres undefined),inactive: 20.7%,–
CCCN(C(=O)Cn1ncc2c1-c1ccccc1OC2)c1cccc(C)c1,inactive: -31.8%,–
O/N=C/c1ccc(-c2ccccc2OC(F)(F)F)o1,–,"inconclusive: 39.8 µM [inhibitor, partial curve]"
CC(C)CC(=O)NC(c1ccccc1)c1c(O)ccc2ccccc12 (centres undefined),–,"inconclusive: 63.1 µM [inhibitor, partial curve, poor fit]"
Cc1ccc(-n2c(=O)c3ccc(C(=O)NCc4ccco4)cc3n(CC(=O)Nc3ccccc3C(F)(F)F)c2=O)cc1,inactive: 4.31%,–
COc1cccc2c1OCC([C@@H]1C[C@H]3CN(Cc4cccc(Cl)c4)C(=O)[C@]34CCCN14)=C2,–,"inconclusive: 28.2 µM [inhibitor, partial curve]"
COc1ccc(-c2cn3cccnc3n2)cc1NC(=O)C(C)Oc1ccccc1 (centres undefined),–,"inconclusive: 89.1 µM [inhibitor, single point]"
Cc1ccc2nc(N(CCCN(C)C)C(=O)CN3C(=O)c4ccccc4C3=O)sc2c1,–,"inconclusive: 39.8 µM [inhibitor, single point]"
CC(C)CC(=O)NC(=S)Nc1sc2c(c1C(N)=O)CCC2,inactive: -41.1% [at 102 µM],–
CCSCCNC(=O)c1cc(-n2cnnc2)ccc1Cl,–,active: 2.51 µM
CC(=O)Nc1ccc(N2CCN(Cc3ccccc3F)CC2)cc1,inconclusive: -59.8% [inhibitor],–
CN(c1ccccc1)S(=O)(=O)c1nnc(NC(=O)COc2ccccc2)s1,–,"inconclusive: 2.24 µM [inhibitor, partial curve, poor fit] and inconclusive: 70.8 µM [inhibitor, single point]"
